From patent US20110091467A1 (CENTRE FOR ADDICTION AND MENTAL HEALTH, published 2011)

Target: T1, dopamine D2 receptor from solubilized rat striatal tissue (rat, UniProt P61169 1-444)
T1 construct: mature; Endogenous protein in a detergent extract of rat striatum, detected by Western blot with anti-D2; also called D2 receptors
Assay: GST affinity purification (pull-down), Western blot for D2 receptor

T1 sequence (P61169 whole entry): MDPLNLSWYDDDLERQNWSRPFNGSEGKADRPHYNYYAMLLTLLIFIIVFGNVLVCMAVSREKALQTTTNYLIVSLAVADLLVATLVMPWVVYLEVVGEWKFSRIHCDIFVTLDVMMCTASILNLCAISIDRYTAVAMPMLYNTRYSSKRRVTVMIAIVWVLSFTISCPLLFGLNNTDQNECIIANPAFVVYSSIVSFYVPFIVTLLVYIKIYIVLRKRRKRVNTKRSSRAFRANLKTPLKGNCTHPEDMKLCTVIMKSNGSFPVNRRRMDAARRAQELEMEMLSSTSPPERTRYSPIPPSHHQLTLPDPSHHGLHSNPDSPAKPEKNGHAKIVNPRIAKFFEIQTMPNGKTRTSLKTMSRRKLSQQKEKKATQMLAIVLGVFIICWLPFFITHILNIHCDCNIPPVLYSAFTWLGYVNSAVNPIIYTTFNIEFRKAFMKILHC

B1: GST alone (other)
chain: not shown
- binding result: no binding
